# According to patent US20260022143A1, “Cyclic Peptide Inhibitors of IL-23” (JANSSEN PHARMACEUTICA NV, priority 2022, published 2026):
# Molecular target: T1, IL-23R (Homo sapiens, UniProt Q5VWK5)
# T1 construct: host or cells: HEK293
# T1 sequence (Q5VWK5 24-629): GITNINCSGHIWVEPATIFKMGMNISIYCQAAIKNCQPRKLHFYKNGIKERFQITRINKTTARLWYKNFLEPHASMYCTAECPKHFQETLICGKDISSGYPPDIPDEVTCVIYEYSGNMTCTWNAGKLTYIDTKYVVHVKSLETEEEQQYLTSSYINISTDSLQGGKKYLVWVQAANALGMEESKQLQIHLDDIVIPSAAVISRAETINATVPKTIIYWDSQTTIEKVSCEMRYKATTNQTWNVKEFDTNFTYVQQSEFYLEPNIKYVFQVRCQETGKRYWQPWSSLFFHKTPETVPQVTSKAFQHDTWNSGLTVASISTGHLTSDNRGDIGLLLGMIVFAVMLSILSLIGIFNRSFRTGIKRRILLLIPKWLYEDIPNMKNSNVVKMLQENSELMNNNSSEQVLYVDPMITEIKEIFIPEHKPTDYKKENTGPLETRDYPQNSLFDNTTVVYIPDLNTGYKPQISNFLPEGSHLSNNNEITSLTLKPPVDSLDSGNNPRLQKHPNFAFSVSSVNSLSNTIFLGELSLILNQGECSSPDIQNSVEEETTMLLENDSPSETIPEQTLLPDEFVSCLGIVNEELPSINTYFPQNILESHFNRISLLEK
# Assay: IL23R Reporter Assay
# Format: cell-based
# Settings: IL23R Reporter Assay (micromolar), HEK293 cells containing IL-23R, IL-12RP1 and STAT-inducible firefly luciferase reporter; 10 ng/mL IL-23 (EC90); 5 h at 37° C.
row,Structure (SMILES),IC50 [nM]
1,"CC(=O)NCCCC[C@@H]1NC(=O)[C@H](Cc2c[nH]c3c(C)cccc23)NC(=O)[C@H]([C@@H](C)O)NC(=O)[C@H](CC(N)=O)NC(=O)[C@@H](NC(C)=O)C(C)(C)SSC(C)(C)[C@@H](C(=O)N[C@@H](Cc2ccc(OCCN)cc2)C(=O)N[C@@H](Cc2ccc3ccccc3c2)C(=O)N[C@@](C)(CCCCN)C(=O)N[C@@H](CCCCNC(C)=O)C(=O)N[C@@H](CC(N)=O)C(=O)N[C@H](Cc2ccccc2)C(=O)N(C)[C@H](Cc2ccc(O)cc2)C(N)=O)NC1=O [compound 20, MeCO-Pen(3)-N-T-7MeW-K(Ac)-Pen(3)-AEF-2Nal-aMeK-K(Ac)-N-f-NMeDTyr-CONH2]",300
2,"CC(=O)NCCCC[C@H](NC(=O)[C@](C)(CCCCN)NC(=O)[C@H](Cc1ccc2ccccc2c1)NC(=O)[C@H](Cc1ccc(OCCN)cc1)NC(=O)[C@H]1NC(=O)[C@H](Cc2ccc(O)cc2)NC(=O)[C@H](Cc2c[nH]c3c(C)cccc23)NC(=O)[C@H]([C@@H](C)O)NC(=O)[C@H](CC(N)=O)NC(=O)[C@@H](NC(C)=O)C(C)(C)SSC1(C)C)C(=O)N[C@@H](CC(N)=O)C(=O)N[C@H](CCCCN)C(=O)N(C)[C@H](Cc1ccc(O)cc1)C(N)=O [compound 21, MeCO-Pen(3)-N-T-7MeW-Y-Pen(3)-AEF-2Nal-aMeK-K(Ac)-N-k-NMeDTyr-CONH2]",130
3,"CC(=O)NCCCC[C@H](NC(=O)[C@](C)(CCCCN)NC(=O)[C@H](Cc1ccc2ccccc2c1)NC(=O)[C@H](Cc1ccc(OCCN)cc1)NC(=O)[C@H]1NC(=O)[C@H](Cc2ccc(C(N)=O)cc2)NC(=O)[C@H](Cc2c[nH]c3c(C)cccc23)NC(=O)[C@H]([C@@H](C)O)NC(=O)[C@H](CC(N)=O)NC(=O)[C@@H](NC(C)=O)C(C)(C)SSC1(C)C)C(=O)N[C@@H](CC(N)=O)C(=O)N[C@H](CCCCN)C(=O)N(C)[C@H](Cc1ccc(O)cc1)C(N)=O [compound 22, MeCO-Pen(3)-N-T-7MeW-4AmPhe-Pen(3)-AEF-2Nal-aMeK-K(Ac)-N-k-NMeDTyr-CONH2]",160
4,"CC(=O)NCCCC[C@@H]1NC(=O)[C@H](Cc2c[nH]c3c(C)cccc23)NC(=O)[C@H]([C@@H](C)O)NC(=O)[C@H](CC(N)=O)NC(=O)[C@@H](NC(C)=O)C(C)(C)SSC(C)(C)[C@@H](C(=O)N[C@@H](Cc2ccc(OCCN)cc2)C(=O)N[C@@H](Cc2ccc3ccccc3c2)C(=O)N[C@@](C)(CCCCN)C(=O)N[C@@H](CCCCNC(C)=O)C(=O)N[C@@H](CC(N)=O)C(=O)N[C@H](Cc2ccc(O)cc2)C(=O)N(C)[C@H](Cc2ccc(O)cc2)C(N)=O)NC1=O [compound 24, MeCO-Pen(3)-N-T-7MeW-K(Ac)-Pen(3)-AEF-2Nal-aMeK-K(Ac)-N-y-NMeDTyr-CONH2]",180
5,"CC(=O)NCCCC[C@H](NC(=O)[C@](C)(CC(C)C)NC(=O)[C@H](Cc1ccc2ccccc2c1)NC(=O)[C@H](Cc1ccc(OCCN)cc1)NC(=O)[C@H]1NC(=O)[C@H](CCCNC(N)=O)NC(=O)[C@H](Cc2c[nH]c3c(C)cccc23)NC(=O)[C@H]([C@@H](C)O)NC(=O)[C@H](CC(N)=O)NC(=O)[C@@H](NC(C)=O)C(C)(C)SSC1(C)C)C(=O)N[C@@H](CC(N)=O)C(=O)N[C@H](CCCCN)C(=O)N(C)[C@H](Cc1ccc(O)cc1)C(N)=O [compound 25, MeCO-Pen(3)-N-T-7MeW-Cit-Pen(3)-AEF-2Nal-aMeL-K(Ac)-N-k-NMeDTyr-CONH2]",48
6,"CC(=O)NCCCC[C@@H]1NC(=O)[C@H](Cc2c[nH]c3c(C)cccc23)NC(=O)[C@H]([C@@H](C)O)NC(=O)[C@H](CC(N)=O)NC(=O)[C@@H](NC(C)=O)C(C)(C)SSC(C)(C)[C@@H](C(=O)N[C@@H](Cc2ccc(OCCN)cc2)C(=O)N[C@@H](Cc2ccc3ccccc3c2)C(=O)N[C@@](C)(CCCCN)C(=O)N[C@@H](CCCCNC(C)=O)C(=O)N[C@@H](CC(N)=O)C(=O)N[C@H](Cc2c[nH]cn2)C(=O)N(C)[C@H](Cc2ccc(O)cc2)C(N)=O)NC1=O [compound 26, MeCO-Pen(3)-N-T-7MeW-K(Ac)-Pen(3)-AEF-2Nal-aMeK-K(Ac)-N-h-NMeDTyr-CONH2]",110
7,"CC(=O)NCCCC[C@@H]1NC(=O)[C@H](Cc2c[nH]c3c(C)cccc23)NC(=O)[C@H]([C@@H](C)O)NC(=O)[C@H](CC(N)=O)NC(=O)[C@@H](NC(C)=O)C(C)(C)SSC(C)(C)[C@@H](C(=O)N[C@@H](Cc2ccc(OCCN)cc2)C(=O)N[C@@H](Cc2ccc3ccccc3c2)C(=O)N[C@@](C)(CCCCN)C(=O)N[C@@H](CCCCNC(C)=O)C(=O)N[C@@H](CC(N)=O)C(=O)N[C@@H](Cc2cccnc2)C(=O)N(C)[C@H](Cc2ccc(O)cc2)C(N)=O)NC1=O [compound 30, MeCO-Pen(3)-N-T-7MeW-K(Ac)-Pen(3)-AEF-2Nal-aMeK-K(ac)-N-3Pya-NMeDTyr-CONH2]",3.5
8,"CC(=O)NCCCC[C@@H]1NC(=O)[C@H](Cc2c[nH]c3c(C)cccc23)NC(=O)[C@H]([C@@H](C)O)NC(=O)[C@H](CC(N)=O)NC(=O)[C@@H](NC(C)=O)C(C)(C)SSC(C)(C)[C@@H](C(=O)N[C@@H](Cc2ccc(OCCN)cc2)C(=O)N[C@@H](Cc2ccc3ccccc3c2)C(=O)N[C@@](C)(CCCCN)C(=O)N[C@@H](CCCCNC(C)=O)C(=O)N[C@@H](CC(N)=O)C(=O)N[C@H](Cc2cccnc2)C(=O)N(C)[C@H](Cc2ccc(O)cc2)C(N)=O)NC1=O [compound 32, MeCO-Pen(3)-N-T-7MeW-K(Ac)-Pen(3)-AEF-2Nal-aMeK-K(ac)-N-3pya-NMeDTyr-CONH2]",16
